Experimental data taken from PubChem BioAssay AID686979 (National Center for Advancing Translational Sciences (NCATS), 2013).
Values joined by “and” are separate entries in the source; they are usually repeats but may differ in a detail not shown here. Equal values may be shown once. About 50,000 (12%) of roughly 420,000 compounds were called active. Inconclusive means that the source gave no clear call. Such entries were picked first, then a sample of the others. Calls follow the shape of the dose curve; as a rule, active = well fitted inhibition curve with a large enough effect; inconclusive = small, poorly fitted or top-dose-only effect; inactive = flat fitted curve, though single readings scatter. A potency beside an inconclusive call is a rough fit, not a confirmed value.

Assay: qHTS for Inhibitors of human tyrosyl-DNA phosphodiesterase 1 (TDP1): qHTS in cells in presence of CPT; also: nearly all actives have a fitted effect of over 55% in size
Conditions: chicken DT40 Tdp1-/-;hTDP1 cells + 20 nM CPT, ATP luminescence, 48 h; activity change, negative = growth inhibition: at 46.2 µM (top of the series) unless noted
Method in brief: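 Chicken DT40 Tdp1-/- cells stably complemented with human TDP1 were seeded at 400 cells/well in medium containing 20 nM camptothecin, exposed to pin-transferred compounds, and grown at 37 °C for at least 48 hr. Viability was read as ATP luminescence.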
% is scaled to controls: 0 for no effect and ±100 for the full control effect; potency is read from the fitted curve at half-maximal effect; tags tell the direction and shape of the fitted curve.

Row | Compound | Potency | activity change, negative = growth inhibition
1 | Cc1ccc(C(=O)Nc2nnc(S(=O)(=O)N3CCCc4ccccc43)s2)cc1 | inactive | –
2 | CCOc1ccc(S(=O)(=O)NCCc2csc3nc(-c4cccc(C)c4)nn23)cc1 | inconclusive: 23.1 µM [inhibitor, single point] | –
3 | Fc1ccc(Nc2c(-c3c[nH]c4ccccc34)nc3ccccn23)cc1 | active: 16.4 µM | –
4 | CCCN(CC(=O)Nc1ccccc1OC)C(=O)CCC(=O)c1ccc(OCC)cc1 | inconclusive: 16.4 µM [inhibitor, single point] | –
5 | Cc1cc(C)c2nc(C(F)(F)F)nc(N3CCN(C(=O)c4ccco4)CC3)c2c1 | active: 25.9 µM | –
6 | COC(=O)c1sc(NC(=O)c2csc3c2CCCC3)nc1C | inconclusive: 8.2 µM [inhibitor, partial curve] | –
7 | COc1ccc(C(=O)NC2CCCc3ccccc32)cc1S(=O)(=O)N1CCOCC1 (stereo not drawn) | inactive | –
8 | COCCn1c(SCc2ccc(Cl)cc2)nc2c1c(=O)[nH]c(=O)n2C | inactive | –
9 | CC(C)Nc1ccc(C(CC(N)=O)NC(=O)Cc2ccc(Br)cc2)cc1[N+](=O)[O-] (stereo not drawn) | active: 13 µM | –
10 | CCc1noc(C)c1C(=O)N1CCN(S(=O)(=O)c2c(C)c(C)cc(C)c2C)CC1 | inactive | –
11 | COc1ccccc1CNC(=O)C12CC3CC(CC(C3)C1)C2 | inconclusive: 25.9 µM [inhibitor, single point] | –
12 | CCn1c(NCc2cc(OC)ccc2OC)nc2ccccc21 | inactive | –
13 | COCCCNC(=O)C1CCN(C(=O)c2cc3sccc3n2Cc2ccc(Cl)cc2)CC1 | active: 13 µM | –
14 | COc1c(C)cc(C(O)c2ncc(-c3ccc4ccccc4c3)[nH]2)cc1C (stereo not drawn) | inconclusive: 25.9 µM [inhibitor, single point] | –
15 | CCOc1ncccc1C(=O)Nc1ccc2c(c1)OCCCO2 | inconclusive: 18.4 µM [inhibitor, partial curve, poor fit] | –
16 | CC1=C(C(=O)Nc2ccccc2)C(c2ccco2)C(C#N)=C(SCC(=O)OC(C)C)N1 (stereo not drawn) | inconclusive: 29.1 µM [inhibitor, single point] | –
17 | COc1ccc(C(=O)Nc2ccc3nc(N4CCCCC4)cc(C)c3c2)cc1OC | active: 23.1 µM and active: 20.6 µM | –
18 | COc1ccc(CCNC(=O)c2ccc(CSCc3ccc(C)cc3)o2)cc1OC | active: 14.6 µM | –
19 | CC1CCCN(C(=O)c2ccc3c(c2NCCO)C(=O)c2ccccc2C3=O)C1 (stereo not drawn) | inconclusive: 29.1 µM [inhibitor, single point] | –
20 | O=C(c1ccco1)N1CCN(C(=S)Nc2cc(F)cc(F)c2)CC1 | inactive | –
21 | CC(C)Cn1c(N)c(C(=O)CSc2nccn2C)c(=O)n(C)c1=O | inactive | –
22 | COc1cccc(C(=O)Nc2ccc(C(=O)OCc3cc(=O)n4cc(C)sc4n3)cc2)c1 | inconclusive: 29.1 µM [inhibitor, single point] | –
23 | Cc1nc2c(C(=O)NCCc3ccccc3)c[nH]n2c(=O)c1Cc1ccccc1F | inconclusive: 29.1 µM [inhibitor, single point] | –
24 | CN(Cc1ccccc1)C(=O)c1cn(C)c2ccc(S(=O)(=O)N3CCCC3)cc2c1=O | inactive | –
25 | O=S(=O)(c1ccc(Br)cc1)N1CCC(c2nc3ccccc3[nH]2)CC1 | active: 18.4 µM | –

Row | Compound | Potency | activity change, negative = growth inhibition
26 | Cc1cccc(NC(=O)COC(=O)c2nn(-c3ccccc3C(F)(F)F)cc2O)c1C | inconclusive: 14.6 µM [inhibitor, single point] | –
27 | CC1Sc2ccc(S(=O)(=O)CCC(=O)N3CCN(c4ccccc4)CC3)cc2NC1=O (stereo not drawn) | inconclusive: 20.6 µM [inhibitor, single point] | –
28 | Cc1cc(C)n2c(NCc3ccccc3)c(-c3cc4ccccc4o3)nc2n1 | active: 16.4 µM | –
29 | CCCCc1cc(=O)oc2cc(C)cc(OC(C)C(=O)NCc3ccccn3)c12 (stereo not drawn) | inconclusive: 29.1 µM [inhibitor, single point] | –
30 | O=S(=O)(c1ccc(Cl)cc1)N1CCC(c2ccncc2)CC1 | inconclusive: 2.31 µM [inhibitor, full curve] | –
31 | O=C(Nc1nnc(S(=O)(=O)N2CCOCC2)s1)c1cccc(Br)c1 | inactive and inconclusive: 29.1 µM [inhibitor, single point] | –
32 | COc1ccc2[nH]c(C(=O)N(C)c3ccc(F)cc3F)cc2c1 | inactive | –
33 | Cc1ccc2c(c1)CC1(CN2C)C(=O)OC(C)(C)OC1=O | inconclusive: 20.6 µM [inhibitor, single point] | –
34 | Cc1ccc(OCCNC(=O)c2ccccc2OCc2c(C)noc2C)cc1 | inconclusive: 18.4 µM [inhibitor, single point] | –
35 | O=c1cc(-c2ccc(O)cc2)oc2ccccc12 | inconclusive: 20.6 µM [inhibitor, partial curve] | –
36 | CN(CC(=O)Nc1ccc(Cl)c(S(=O)(=O)N(C)C)c1)Cc1ccccc1 | inconclusive: 29.1 µM [inhibitor, single point] | –
37 | C=CCn1c(C(C)NC(=O)C(C)(C)C)nc2ccccc21 (stereo not drawn) | inactive | –
38 | COc1cc(C(=O)OCC(=O)N2CCC(Cc3ccccc3)CC2)cc(OC)c1OC | inconclusive: 20.6 µM [inhibitor, single point] | –
39 | NC(=O)Cn1c(-c2nonc2N)nc2ccccc21 | inactive | –
40 | CC1CCN(CC(CS(=O)(=O)c2ccc([N+](=O)[O-])cc2)N2CCC(C)CC2)CC1 (stereo not drawn) | active: 2.06 µM | –
41 | CN(C)CCCNC(=O)c1cc(C(=O)c2c(Cl)cccc2Cl)c[nH]1 | – | inconclusive: -31.6% [inhibitor]
42 | CCOC(=O)Nc1nc(-c2ccc(Cl)cc2Cl)cs1 | inconclusive: 11.6 µM [inhibitor, partial curve, poor fit] | –
43 | O=C(N/N=C/c1cccs1)c1ccc(-n2cccc2)cc1 | inactive | –
44 | CS(=O)(=O)Nc1ccc(C(=O)Nc2ccc(S(=O)(=O)N3CCCCC3)cc2)cc1 | inconclusive: 25.9 µM [inhibitor, single point] | –
45 | Cc1cccc(S(=O)(=O)C(C#N)c2nc3ccccc3nc2N2CCOCC2)c1 (stereo not drawn) | inconclusive: 16.4 µM [inhibitor, single point] | –
46 | Cc1ccc(-c2cc3ncc4c(n3n2)-c2ccccc2OC4)cc1 | inactive | –
47 | O=C(CN1CCCCCC1)Nc1ccccc1C(=O)Nc1ccccc1 | inconclusive: 20.6 µM [inhibitor, single point] | –
48 | CCOc1ccc2nc(NC(=O)Nc3cccs3)sc2c1 | inconclusive: 29.1 µM [inhibitor, single point] | –
49 | Cc1[nH]c2ccccc2c1/C=N/NC(=S)NCc1ccccc1 | inconclusive: 29.1 µM [inhibitor, single point] | –
50 | COc1cc(NC(=O)c2cc3cc4ccc(OC)c(Cl)c4nc3s2)cc(OC)c1 | inactive | –

Row | Compound | Potency | activity change, negative = growth inhibition
51 | Cc1ccc(Cn2nnc3c(=O)[nH]c(C4CCCN(S(=O)(=O)c5ccccc5)C4)nc32)cc1 (stereo not drawn) | inactive | –
52 | N#CC1=C(N)OC2=C(CC/C2=C\c2ccccc2Cl)C1c1ccccc1Cl (stereo not drawn) | inconclusive: 29.1 µM [inhibitor, single point] | –
53 | O=C(c1cnc2n(c1=O)CCS2)N(c1ccccc1)C1CCCCC1 | inconclusive: 18.4 µM [inhibitor, single point] | –
54 | CCOC(=O)C1CCCN(C(=O)c2sc(-c3ccccc3)nc2C)CC1 (stereo not drawn) | inconclusive: 29.1 µM [inhibitor, single point] | –
55 | CCc1c(O)nc(SCC(=O)Nc2cc(C)on2)n(-c2ccccc2)c1=O | inactive | –
56 | O=C(c1cc(=O)[nH]c2ccccc12)N1CCN(S(=O)(=O)c2ccc3ccccc3c2)CC1 | inconclusive: 29.1 µM [inhibitor, single point] | –
57 | COc1ccccc1NS(=O)(=O)c1cccc(NC(=O)CCNC(=O)c2ccccc2OC)c1 | inconclusive: 16.4 µM [inhibitor, single point] | –
58 | Cc1c(Nc2ncnc3c2cnn3-c2ccccc2)c(=O)n(-c2ccccc2)n1C | inconclusive: 32.6 µM [inhibitor, partial curve, poor fit] | –
59 | COc1ccc(C(=O)O/N=C(\N)c2ccccc2)c(OC)c1 | inconclusive: 29.1 µM [inhibitor, single point] | –
60 | CCc1nn(CC(=O)N2CCN(c3cc(C)ccc3C)CC2)c(=O)c2cc3occc3n12 | inconclusive: 10.3 µM [inhibitor, partial curve] | –
61 | CC1=C(c2ccc(C)c(C)c2)S(=O)(=O)N=C1N1CCC(C(=O)Nc2ccc(Cl)cc2)CC1 | active: 16.4 µM | –
62 | O=S(=O)(Nc1ccc(-c2ccc(N3CCCCCC3)nn2)cc1)c1cccc(C(F)(F)F)c1 | active: 14.6 µM | –
63 | COc1ccc(CCNc2nc(SCc3ccc(F)cc3)nc3ccccc23)cc1OC | active: 7.31 µM | –
64 | Cc1cc(C)c(C)c(S(=O)(=O)Nc2ccccc2N2CCOCC2)c1C | inactive | –
65 | CCN(Cc1ccncc1)Cc1nc(-c2ccc(C(=O)OC)cc2)no1 | inconclusive: 16.4 µM [inhibitor, single point] | –
66 | CC(NS(=O)(=O)c1ccc(OCC(=O)N2CCOCC2)c(Cl)c1)c1ccccc1 (stereo not drawn) | inactive | –
67 | CCn1c(SCC(=O)Nc2cccc(OC)c2)nc2ccccc2c1=O | inconclusive: 5.8 µM [inhibitor, partial curve, poor fit] | –
68 | COc1ccc(C(=O)Nc2ccc(C3CC3(Cl)Cl)cc2)cc1 (stereo not drawn) | inactive | –
69 | CCn1c(N2CCN(CC(=O)c3ccc(OC)cc3)CC2)nc2ccccc21 | inactive | –
70 | CN(CC(O)COCc1ccccc1F)C1CCCCC1 (stereo not drawn) | inactive | –
71 | N#Cc1ccc(NC(=O)c2cc(-c3cccc(Cl)c3)on2)cc1 | inactive | –
72 | O=C(Nc1nccs1)c1ccccc1Br | inactive | –
73 | COC(=O)c1c(NC(=O)C2COc3ccccc3O2)sc2c1CCN(C(=O)OC)C2 (stereo not drawn) | active: 16.4 µM | –
